Results published in the supplement of paper PMC9151546.
Counter-ions that a name gives are not always drawn. Many values rest on one well or one pass, so single values are uncertain.

Experiments:
CHO-K1 [1] = assay: hypodiploid nuclei frequency (% of nucleated events); higher = more hypodiploid events (aneugenic)
Description: (§1)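 Flow-cytometric in vitro micronucleus assay (Litron MicroFlow) in CHO-K1 cells in 96-well plates, 19 concentrations (4.5-200 µM, n=1 per concentration). Without S9, cells were exposed for 24 h and sampled at 48 h. With Aroclor 1254-induced rat liver S9, cells were exposed for 3-4 h and sampled at 27-28 h. Read-outs are %MN and %hypodiploid nuclei relative to nucleated events, and relative survival as the nuclei-to-bead ratio versus the 1% DMSO vehicle control (x100).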

CHO-K1 [2] = assay: relative survival (nuclei to bead ratio vs DMSO control) (% of vehicle control); higher = more surviving cells
Description: as §1

CHO-K1 [3] = assay: micronucleus frequency (% of nucleated events); higher = more micronuclei (genotoxic)
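Throughout, for hypodiploid nuclei frequency (% of nucleated events): hypodiploid nuclei gated on a flow cytometer with 488 nm excitation after SYTOX Green staining, cultures at 37 °C, positive controls vinblastine without S9 and cyclophosphamide with S9.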
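Throughout, for micronucleus frequency (% of nucleated events): cells lysed with nuclei stained by SYTOX Green, then micronucleus-gated events counted against nucleated events by flow cytometry with 488 nm excitation.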
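Throughout, for relative survival (nuclei to bead ratio vs DMSO control): Lysed-cell nuclei stained with SYTOX Green and counted against counting beads by flow cytometry at 488 nm excitation, with vinblastine (no S9) and cyclophosphamide (plus S9) as positive controls.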

O=C1NC(=O)C(c2ccccc2)(c2ccccc2)N1 [5,5-Diphenylhydantoin]
Conditions	hypodiploid nuclei frequency, CHO-K1 [1] [%]	micronucleus frequency, CHO-K1 [3] [%]	relative survival, CHO-K1 [2]
concentration: 4.5 (µM), S9 metabolic activation: with S9, exposure time: 3-4 hours	0.24	0.92	99.9
concentration: 4.5 (µM), S9 metabolic activation: without S9, exposure time: 24 hours	0.78	0.96	104
concentration: 5.63 (µM), S9 metabolic activation: with S9, exposure time: 3-4 hours	0.26	0.9	102
concentration: 5.63 (µM), S9 metabolic activation: without S9, exposure time: 24 hours	0.4	1.38	121
concentration: 7.04 (µM), S9 metabolic activation: with S9, exposure time: 3-4 hours	0.18	1.04	83.8
concentration: 7.04 (µM), S9 metabolic activation: without S9, exposure time: 24 hours	0.76	2.4	111
concentration: 8.8 (µM), S9 metabolic activation: with S9, exposure time: 3-4 hours	0.24	1.7	98.9
concentration: 8.8 (µM), S9 metabolic activation: without S9, exposure time: 24 hours	0.76	1.58	121
concentration: 11 (µM), S9 metabolic activation: with S9, exposure time: 3-4 hours	0.3	1.22	98.9
concentration: 11 (µM), S9 metabolic activation: without S9, exposure time: 24 hours	0.7	1.78	91.4
concentration: 13.7 (µM), S9 metabolic activation: with S9, exposure time: 3-4 hours	0.24	1.3	111
concentration: 13.7 (µM), S9 metabolic activation: without S9, exposure time: 24 hours	0.46	2.24	133
concentration: 17.2 (µM), S9 metabolic activation: with S9, exposure time: 3-4 hours	0.42	1.32	119
concentration: 17.2 (µM), S9 metabolic activation: without S9, exposure time: 24 hours	0.8	2.04	121
concentration: 21.5 (µM), S9 metabolic activation: with S9, exposure time: 3-4 hours	0.24	1.48	94.8
concentration: 21.5 (µM), S9 metabolic activation: without S9, exposure time: 24 hours	0.78	2.32	113
concentration: 26.8 (µM), S9 metabolic activation: with S9, exposure time: 3-4 hours	0.32	0.44	91.3
concentration: 26.8 (µM), S9 metabolic activation: without S9, exposure time: 24 hours	0.88	2.12	109
concentration: 33.6 (µM), S9 metabolic activation: with S9, exposure time: 3-4 hours	0.16	0.78	98.9
concentration: 33.6 (µM), S9 metabolic activation: without S9, exposure time: 24 hours	0.66	1.78	110
concentration: 41.9 (µM), S9 metabolic activation: with S9, exposure time: 3-4 hours	0.22	0.82	88
concentration: 41.9 (µM), S9 metabolic activation: without S9, exposure time: 24 hours	1.04	2.12	127
concentration: 52.4 (µM), S9 metabolic activation: with S9, exposure time: 3-4 hours	0.22	1.06	96
concentration: 52.4 (µM), S9 metabolic activation: without S9, exposure time: 24 hours	0.84	1.62	119
concentration: 65.5 (µM), S9 metabolic activation: with S9, exposure time: 3-4 hours	0.1	0.86	92.6
concentration: 65.5 (µM), S9 metabolic activation: without S9, exposure time: 24 hours	1.32	2.8	103
concentration: 81.9 (µM), S9 metabolic activation: with S9, exposure time: 3-4 hours	0.3	1.38	94.2
concentration: 81.9 (µM), S9 metabolic activation: without S9, exposure time: 24 hours	0.78	2.86	109
concentration: 102 (µM), S9 metabolic activation: with S9, exposure time: 3-4 hours	0.18	1.4	99.9
concentration: 102 (µM), S9 metabolic activation: without S9, exposure time: 24 hours	0.88	1.9	100
concentration: 128 (µM), S9 metabolic activation: with S9, exposure time: 3-4 hours	0.32	1.14	96.5
concentration: 128 (µM), S9 metabolic activation: without S9, exposure time: 24 hours	1.54	2.84	101
concentration: 160 (µM), S9 metabolic activation: with S9, exposure time: 3-4 hours	0.3	1.02	98
concentration: 160 (µM), S9 metabolic activation: without S9, exposure time: 24 hours	1.54	3.24	99.3
concentration: 200 (µM), S9 metabolic activation: with S9, exposure time: 3-4 hours	0.24	1.14	102
concentration: 200 (µM), S9 metabolic activation: without S9, exposure time: 24 hours	1.56	3.86	68.3

CC(C)NCC(O)c1ccc(O)c(O)c1 (centres undefined) [Isoproterenol hydrochloride]
Conditions	hypodiploid nuclei frequency, CHO-K1 [1] [%]	micronucleus frequency, CHO-K1 [3] [%]	relative survival, CHO-K1 [2]
concentration: 4.5 (µM), S9 metabolic activation: with S9, exposure time: 3-4 hours	0.3	1.48	90.6
concentration: 4.5 (µM), S9 metabolic activation: without S9, exposure time: 24 hours	0.52	1.3	129
concentration: 5.63 (µM), S9 metabolic activation: with S9, exposure time: 3-4 hours	0.28	1.56	102
concentration: 5.63 (µM), S9 metabolic activation: without S9, exposure time: 24 hours	0.32	0.88	99.6
concentration: 7.04 (µM), S9 metabolic activation: with S9, exposure time: 3-4 hours	0.2	1.26	85.8
concentration: 7.04 (µM), S9 metabolic activation: without S9, exposure time: 24 hours	0.56	1.24	119
concentration: 8.8 (µM), S9 metabolic activation: with S9, exposure time: 3-4 hours	0.18	0.84	87.8
concentration: 8.8 (µM), S9 metabolic activation: without S9, exposure time: 24 hours	0.62	1.52	108
concentration: 11 (µM), S9 metabolic activation: with S9, exposure time: 3-4 hours	0.18	1.38	83
concentration: 11 (µM), S9 metabolic activation: without S9, exposure time: 24 hours	0.62	1.28	157
concentration: 13.7 (µM), S9 metabolic activation: with S9, exposure time: 3-4 hours	0.26	1.16	93.8
concentration: 13.7 (µM), S9 metabolic activation: without S9, exposure time: 24 hours	2.36	1.96	122
concentration: 17.2 (µM), S9 metabolic activation: with S9, exposure time: 3-4 hours	0.22	1.34	108
concentration: 17.2 (µM), S9 metabolic activation: without S9, exposure time: 24 hours	0.52	1.66	110
concentration: 21.5 (µM), S9 metabolic activation: with S9, exposure time: 3-4 hours	0.2	1.24	106
concentration: 21.5 (µM), S9 metabolic activation: without S9, exposure time: 24 hours	1.06	1.98	116
concentration: 26.8 (µM), S9 metabolic activation: with S9, exposure time: 3-4 hours	0.2	1.08	66.5
concentration: 26.8 (µM), S9 metabolic activation: without S9, exposure time: 24 hours	1.04	1.66	107
concentration: 33.6 (µM), S9 metabolic activation: with S9, exposure time: 3-4 hours	0.24	0.88	109
concentration: 33.6 (µM), S9 metabolic activation: without S9, exposure time: 24 hours	0.74	1.88	130
concentration: 41.9 (µM), S9 metabolic activation: with S9, exposure time: 3-4 hours	0.2	1.14	66.5
concentration: 41.9 (µM), S9 metabolic activation: without S9, exposure time: 24 hours	0.78	1.2	130
concentration: 52.4 (µM), S9 metabolic activation: with S9, exposure time: 3-4 hours	0.24	1.24	95
concentration: 52.4 (µM), S9 metabolic activation: without S9, exposure time: 24 hours	0.7	1.3	129
concentration: 65.5 (µM), S9 metabolic activation: with S9, exposure time: 3-4 hours	0.2	1.2	70.5
concentration: 65.5 (µM), S9 metabolic activation: without S9, exposure time: 24 hours	0.8	2.14	119
concentration: 81.9 (µM), S9 metabolic activation: with S9, exposure time: 3-4 hours	0.24	1.3	90.9
concentration: 81.9 (µM), S9 metabolic activation: without S9, exposure time: 24 hours	1.06	1.66	116
concentration: 102 (µM), S9 metabolic activation: with S9, exposure time: 3-4 hours	0.32	1.72	77.3
concentration: 102 (µM), S9 metabolic activation: without S9, exposure time: 24 hours	1.3	2.02	136
concentration: 128 (µM), S9 metabolic activation: with S9, exposure time: 3-4 hours	0.24	1.4	95
concentration: 128 (µM), S9 metabolic activation: without S9, exposure time: 24 hours	1.46	2.46	83.9
concentration: 160 (µM), S9 metabolic activation: with S9, exposure time: 3-4 hours	0.22	2.14	94.7
concentration: 160 (µM), S9 metabolic activation: without S9, exposure time: 24 hours	2.38	1.98	78.2
concentration: 200 (µM), S9 metabolic activation: with S9, exposure time: 3-4 hours	0.42	2.46	86
concentration: 200 (µM), S9 metabolic activation: without S9, exposure time: 24 hours	2.5	3.36	62.4

CN(C)C(=O)Nc1ccc(Cl)cc1 [Monuron]
Conditions	hypodiploid nuclei frequency, CHO-K1 [1] [%]	micronucleus frequency, CHO-K1 [3] [%]	relative survival, CHO-K1 [2]
concentration: 4.5 (µM), S9 metabolic activation: with S9, exposure time: 3-4 hours	0.22	2.52	80.8
concentration: 4.5 (µM), S9 metabolic activation: without S9, exposure time: 24 hours	0.78	1.28	100
concentration: 5.63 (µM), S9 metabolic activation: with S9, exposure time: 3-4 hours	0.36	1.72	93.6
concentration: 5.63 (µM), S9 metabolic activation: without S9, exposure time: 24 hours	0.64	1.56	108
concentration: 7.04 (µM), S9 metabolic activation: with S9, exposure time: 3-4 hours	0.28	1.5	88.5
concentration: 7.04 (µM), S9 metabolic activation: without S9, exposure time: 24 hours	0.46	1.76	108
concentration: 8.8 (µM), S9 metabolic activation: with S9, exposure time: 3-4 hours	0.12	1.64	66.3
concentration: 8.8 (µM), S9 metabolic activation: without S9, exposure time: 24 hours	0.8	2.28	101
concentration: 11 (µM), S9 metabolic activation: with S9, exposure time: 3-4 hours	0.22	1.58	79.1
concentration: 11 (µM), S9 metabolic activation: without S9, exposure time: 24 hours	0.66	2.32	104
concentration: 13.7 (µM), S9 metabolic activation: with S9, exposure time: 3-4 hours	0.24	1.34	74.2
concentration: 13.7 (µM), S9 metabolic activation: without S9, exposure time: 24 hours	0.64	1.68	97
concentration: 17.2 (µM), S9 metabolic activation: with S9, exposure time: 3-4 hours	0.18	1.2	89.2
concentration: 17.2 (µM), S9 metabolic activation: without S9, exposure time: 24 hours	0.72	2.22	113
concentration: 21.5 (µM), S9 metabolic activation: with S9, exposure time: 3-4 hours	0.26	1.3	83.2
concentration: 21.5 (µM), S9 metabolic activation: without S9, exposure time: 24 hours	0.7	2.62	101
concentration: 26.8 (µM), S9 metabolic activation: with S9, exposure time: 3-4 hours	0.14	1.66	71.1
concentration: 26.8 (µM), S9 metabolic activation: without S9, exposure time: 24 hours	0.8	2.14	99.1
concentration: 33.6 (µM), S9 metabolic activation: with S9, exposure time: 3-4 hours	0.34	1.84	73.9
concentration: 33.6 (µM), S9 metabolic activation: without S9, exposure time: 24 hours	0.82	2.52	97.3
concentration: 41.9 (µM), S9 metabolic activation: with S9, exposure time: 3-4 hours	0.24	1.66	66.7
concentration: 41.9 (µM), S9 metabolic activation: without S9, exposure time: 24 hours	0.88	2.5	84.6
concentration: 52.4 (µM), S9 metabolic activation: with S9, exposure time: 3-4 hours	0.18	1.32	64.8
concentration: 52.4 (µM), S9 metabolic activation: without S9, exposure time: 24 hours	1.22	3.14	81.1
concentration: 65.5 (µM), S9 metabolic activation: with S9, exposure time: 3-4 hours	0.2	1.24	75.4
concentration: 65.5 (µM), S9 metabolic activation: without S9, exposure time: 24 hours	1.04	2.52	88.5
concentration: 81.9 (µM), S9 metabolic activation: with S9, exposure time: 3-4 hours	0.32	1.36	71.8
concentration: 81.9 (µM), S9 metabolic activation: without S9, exposure time: 24 hours	0.72	2.42	81.8
concentration: 102 (µM), S9 metabolic activation: with S9, exposure time: 3-4 hours	0.26	1.2	76.7
concentration: 102 (µM), S9 metabolic activation: without S9, exposure time: 24 hours	1.18	2.74	94.9
concentration: 128 (µM), S9 metabolic activation: with S9, exposure time: 3-4 hours	0.17	1.45	49.3
concentration: 128 (µM), S9 metabolic activation: without S9, exposure time: 24 hours	1.46	3.78	63.8
concentration: 160 (µM), S9 metabolic activation: with S9, exposure time: 3-4 hours	0.12	1.48	55.6
concentration: 160 (µM), S9 metabolic activation: without S9, exposure time: 24 hours	1.98	3.26	78.1
concentration: 200 (µM), S9 metabolic activation: with S9, exposure time: 3-4 hours	0.26	1.89	56.1
concentration: 200 (µM), S9 metabolic activation: without S9, exposure time: 24 hours	2.56	2.94	72.8
